Results on 14 compounds are retold here after the supplement of paper PMC7238544.

Holding throughout (settings): priming compound concentration 100 µM
Experiment [1] has as its system hAMSC donor 1. The experiment is described as follows: transgenic luciferase activity (RLU/mg protein) fold change vs vehicle control (ratio); higher = more transgene expression.
Experiment [2] relates to hAMSC donor 2. The description is as above.
In experiment [3] the test system is hAMSC donor 1. The experiment is described as follows: transfection efficiency (EGFP+ cells / Hoechst count) fold change vs vehicle control (ratio); higher = enhanced transfection.
Experiment [4] concerns hAMSC donor 2. The description is as above.
The test system of experiment [5] is hAMSC donor 1. The experiment is described as follows: Hoechst total cell count ratio vs vehicle control; hAMSC are human adipose-derived mesenchymal stem cells given an EGFP-luciferase plasmid by lipofection; higher = more cells (less toxicity).
Experiment [6] concerns hAMSC donor 2. The description is as above.

The structures appear in SMILES notation. Counter-ions that a name gives are not always drawn. ± gives the standard deviation of the averaged measurements. The list shows a part of the results.
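For Hoechst total cell count ratio vs vehicle control in this document: compound added 30 min before Lipofectamine 3000 lipoplex delivery, triplicate-well means expressed against DMSO vehicle control wells of the same 96-well plate.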
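For transfection efficiency (EGFP+ cells / Hoechst count) fold change vs vehicle control in this document: compounds added 30 min before Lipofectamine 3000 lipoplex transfection, triplicate means relative to DMSO vehicle wells on the same plate, luciferase RLU normalized to BCA total protein.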
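For transgenic luciferase activity (RLU/mg protein) fold change vs vehicle control in this document: compounds in DMSO added 30 min before Lipofectamine 3000 transfection of pEGFP-Luc in 96-well plates, values are means of triplicate wells over DMSO vehicle wells on the same plate.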

Take `Cc1c(C(=O)NN2CCCCC2)nn(-c2ccc(Cl)cc2Cl)c1-c1ccc(I)cc1`: the results for the transgenic luciferase activity in the experiment with hAMSC donor 1 [1] and in the experiment with hAMSC donor 2 [2] were 0.13 ± 0.078 and 0.499 ± 0.28, respectively. For the same compound, the transfection efficiency in the experiment with hAMSC donor 1 [3] amounted to 0.532 ± 0.059; with hAMSC donor 2 [4], 0.771 ± 0.074.

Consider `O=c1c(-c2ccccc2)c1-c1ccccc1` [Diphenylcyclopropenone], for which the “Hoechst total cell count ratio” value came out at 0.0413 ± 0.031 in the experiment with hAMSC donor 1 [5] and 0.112 ± 0.047 in the experiment with hAMSC donor 2 [6]. The transgenic luciferase activity in the experiment with hAMSC donor 1 [1] came to 0.00277 ± 0.00018; with hAMSC donor 2 [2], 0.000854 ± 0.00037. Besides, the transfection efficiency with hAMSC donor 2 [4] was 0.0264 ± 0.046.

As for `O=C1Cc2cc(CCN3CCN(c4nsc5ccccc45)CC3)c(Cl)cc2N1` [Ziprasidone], the “Hoechst total cell count ratio” value was 1 ± 0.16 in the experiment on hAMSC donor 1 [5] and 0.924 ± 0.27 with hAMSC donor 2 [6]. For the same compound, the transgenic luciferase activity in the experiment with hAMSC donor 1 [1] is 0.173 ± 0.14. Further, the transfection efficiency in the experiment with hAMSC donor 1 [3] worked out at 1.01 ± 0.39; in the experiment with hAMSC donor 2 [4], 0.954 ± 0.55.

As for `Nc1ncnc2c1ncn2[C@@H]1O[C@H](CO)[C@@H](O)[C@@H]1O` [Vidarabine], the results for the “Hoechst total cell count ratio” value in the experiment on hAMSC donor 1 [5] and with hAMSC donor 2 [6] were 1.07 ± 0.16 and 0.791 ± 0.27, respectively. In addition, in the experiment on hAMSC donor 1 [1], the transgenic luciferase activity was 1.88 ± 0.68. In addition, the transfection efficiency with hAMSC donor 1 [3] amounted to 0.934 ± 0.2; in the experiment on hAMSC donor 2 [4], 0.811 ± 0.33.

Regarding `CCOC(=O)N1CCC(=C2c3ccc(Cl)cc3CCc3cccnc32)CC1` [Loratadine], the values for the transgenic luciferase activity in the experiment on hAMSC donor 1 [1] and in the experiment with hAMSC donor 2 [2] were 0.329 ± 0.096 and 1.3 ± 0.35, respectively. Besides, the transfection efficiency in the experiment on hAMSC donor 1 [3] stood at 0.694 ± 0.17; with hAMSC donor 2 [4], 1.41 ± 0.49.

Take `C[C@H]1c2cccc(O)c2C(=O)C2=C(O)[C@]3(O)C(=O)C(C(N)=O)=C(O)[C@@H](N(C)C)[C@@H]3[C@@H](O)[C@@H]21` [Doxycycline]: the figures for the “Hoechst total cell count ratio” value with hAMSC donor 1 [5] and in the experiment on hAMSC donor 2 [6] were 1.59 ± 0.14 and 2.12 ± 0.24, respectively. Besides, the transgenic luciferase activity in the experiment with hAMSC donor 1 [1] amounted to 0.961 ± 0.12.

On to `CC(=O)OCC[N+](C)(C)C` [Acetylcholine chloride], for which the “Hoechst total cell count ratio” value with hAMSC donor 1 [5] was 1.1 ± 0.1; in the experiment on hAMSC donor 2 [6] it was 1.14 ± 0.37. Besides, the transgenic luciferase activity with hAMSC donor 1 [1] was 0.337 ± 0.15. Also, the transfection efficiency was 1.03 ± 0.049 in the experiment with hAMSC donor 1 [3] and 0.844 ± 0.22 with hAMSC donor 2 [4].

For `Cc1ccc(Cl)c(Nc2ccccc2C(=O)O)c1Cl` [Meclofenamic acid sodium salt], the results for the “Hoechst total cell count ratio” value with hAMSC donor 1 [5] and in the experiment on hAMSC donor 2 [6] were 1.25 ± 0.19 and 0.685 ± 0.21, respectively. In addition, in the experiment with hAMSC donor 1 [1], the transgenic luciferase activity stood at 0.285 ± 0.18. For the same compound, the transfection efficiency with hAMSC donor 1 [3] amounted to 1.19 ± 0.16; in the experiment with hAMSC donor 2 [4], 0.767 ± 0.075.

Regarding `O=C(C1CCCCC1)N1CC(=O)N2CCc3ccccc3C2C1` (stereo not given) [Praziquantel], the entries for the “Hoechst total cell count ratio” value in the experiment on hAMSC donor 1 [5] and with hAMSC donor 2 [6] were 1.25 ± 0.17 and 1.05 ± 0.054, respectively. Further, the transgenic luciferase activity with hAMSC donor 1 [1] turned out to be 0.534 ± 0.12. Also, the values for the transfection efficiency with hAMSC donor 1 [3] and in the experiment with hAMSC donor 2 [4] were 1.16 ± 0.15 and 0.88 ± 0.043, respectively.

For the compound `Nc1ccn([C@@H]2O[C@H](CO)[C@@H](O)C2(F)F)c(=O)n1` [Gemcitabine hydrochloride], the figures for the “Hoechst total cell count ratio” value in the experiment on hAMSC donor 1 [5] and with hAMSC donor 2 [6] were 0.659 ± 0.12 and 0.394 ± 0.02, respectively. Also, the transgenic luciferase activity in the experiment on hAMSC donor 1 [1] amounted to 0.48 ± 0.27. Also, the values for the transfection efficiency with hAMSC donor 1 [3] and with hAMSC donor 2 [4] were 1.31 ± 0.26 and 1.66 ± 0.26, respectively.

With `O=C(O)C[C@H](O)C[C@H](O)/C=C/c1c(C2CC2)nc2ccccc2c1-c1ccc(F)cc1` [Itavastatin calcium], the “Hoechst total cell count ratio” value in the experiment on hAMSC donor 1 [5] amounted to 1.16 ± 0.089; in the experiment with hAMSC donor 2 [6], 0.538 ± 0.019. The transgenic luciferase activity with hAMSC donor 1 [1] worked out at 0.462 ± 0.12. Besides, the transfection efficiency amounted to 0.6 ± 0.086 in the experiment with hAMSC donor 1 [3] and 2.04 ± 0.37 with hAMSC donor 2 [4].

As to `COc1cccc2c1C(=O)c1c(O)c3c(c(O)c1C2=O)C[C@@](O)(C(C)=O)C[C@@H]3O[C@H]1C[C@H](N)[C@H](O)[C@H](C)O1` [Daunorubicin hydrochloride], the “Hoechst total cell count ratio” value in the experiment on hAMSC donor 1 [5] was 0.000667 ± 0.00058; in the experiment with hAMSC donor 2 [6], 0.000667 ± 0.0011. Further, the transgenic luciferase activity in the experiment on hAMSC donor 1 [1] was 0.0576 ± 0.084; with hAMSC donor 2 [2] it was 0.000786 ± 0.00011. Besides, the transfection efficiency with hAMSC donor 2 [4] is 2.14 ± 3.7.

In the case of `CCC(C)(C)C(=O)O[C@H]1C[C@@H](C)C=C2C=C[C@H](C)[C@H](CC[C@@H]3C[C@@H](O)CC(=O)O3)[C@H]21` [Simvastatin], the transgenic luciferase activity in the experiment on hAMSC donor 1 [1] was 1.91 ± 1.5; in the experiment with hAMSC donor 2 [2], 1.11 ± 0.1. The transfection efficiency in the experiment on hAMSC donor 1 [3] came out at 1.87 ± 0.47; with hAMSC donor 2 [4] it was 1.76 ± 0.12.

With `Cc1cn([C@H]2C[C@H](N=[N+]=[N-])[C@@H](CO)O2)c(=O)[nH]c1=O` [Zidovudine], the “Hoechst total cell count ratio” value with hAMSC donor 1 [5] amounted to 1.16 ± 0.062; in the experiment with hAMSC donor 2 [6], 1.2 ± 0.33. The transgenic luciferase activity with hAMSC donor 1 [1] was 1.99 ± 1.1. Besides, the transfection efficiency in the experiment with hAMSC donor 1 [3] amounted to 1.49 ± 0.14; in the experiment on hAMSC donor 2 [4], 1.11 ± 0.2.
